Assay results published in the supplement of paper PMC8728848.
The other results are listed elsewhere or left out.

Legend:
Assay in all cases: glycan array binding signal (z-score within array); higher = stronger binding
Settings in all cases: glycan notation: IUPAC condensed, linker removed
[1] = molecular target: Fuc(a1-3)[Gal(b1-4)]GlcNAc(b1-4)Gal(b1-4)[Fuc(a1-3)]GlcNAc
How it was run: (§1)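 The binding signal is a Z-score computed within each array. Data were drawn from 3228 arrays in the Consortium for Functional Glycomics database, restricted to those with a known protein sequence. Scores were averaged over arrays of the same protein sequence at different concentrations or buffers, and over linkers, and negative values can be taken as non-binding.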

[2] = molecular target: Fuc(a1-3)[Gal(b1-4)]GlcNAc(b1-4)Gal(b1-4)[Fuc(a1-3)]GlcNAc(b1-4)Gal(b1-4)[Fuc(a1-3)]GlcNAc
How it was run: as §1

[3] = molecular target: Fuc(a1-3)[Gal(b1-4)]GlcNAc(b1-6)GalNAc
How it was run: as §1

[4] = molecular target: Fuc(a1-3)[Gal(b1-4)]GlcNAc(b1-6)[Gal(b1-3)GlcNAc(b1-3)]Gal(b1-4)Glc
How it was run: as §1

[5] = molecular target: Fuc(a1-3)[Gal(b1-4)]GlcNAc(b1-6)[Neu5Ac(a2-3)Gal(b1-3)]GalNAc
How it was run: as §1

[6] = molecular target: Fuc(a1-3)[Gal(b1-4)]GlcNAc6S
How it was run: as §1

[7] = molecular target: Fuc(a1-3)[Gal3S(b1-4)]GlcNAc
How it was run: as §1

[8] = molecular target: Fuc(a1-3)[Gal3S(b1-4)]GlcNAc6S
How it was run: as §1

[9] = molecular target: Fuc(a1-3)[GalNAc(b1-4)]GlcNAc
How it was run: as §1

[10] = molecular target: Fuc(a1-3)[GalNAc(b1-4)]GlcNAc6S
How it was run: as §1

[11] = molecular target: Fuc(a1-3)[GalNAc3S(b1-4)]GlcNAc
How it was run: as §1

[12] = molecular target: Fuc(a1-4)GlcNAc
How it was run: as §1

[13] = molecular target: Fuc(b1-3)GlcNAc
How it was run: as §1

[14] = molecular target: Gal(a1-2)Gal
How it was run: as §1

[15] = molecular target: Gal(a1-3)Gal
How it was run: as §1

[16] = molecular target: Gal(a1-3)Gal(b1-3)GlcNAc
How it was run: as §1

[17] = molecular target: Gal(a1-3)Gal(b1-3)GlcNAc(b1-2)Man(a1-3)[Gal(a1-3)Gal(b1-3)GlcNAc(b1-2)Man(a1-6)]Man(b1-4)GlcNAc(b1-4)GlcNAc
How it was run: as §1

[18] = molecular target: Gal(a1-3)Gal(b1-3)GlcNAc(b1-3)GalNAc
How it was run: as §1

[19] = molecular target: Gal(a1-3)Gal(b1-3)GlcNAc(b1-6)GalNAc
How it was run: as §1

[20] = molecular target: Gal(a1-3)Gal(b1-3)[Fuc(a1-4)]GlcNAc(b1-2)Man(a1-3)[Gal(a1-3)Gal(b1-3)[Fuc(a1-4)]GlcNAc(b1-2)Man(a1-6)]Man(b1-4)GlcNAc(b1-4)GlcNAc
How it was run: as §1

[21] = molecular target: Gal(a1-3)Gal(b1-4)Glc
How it was run: as §1

[22] = molecular target: Gal(a1-3)Gal(b1-4)GlcNAc
How it was run: as §1

[23] = molecular target: Gal(a1-3)Gal(b1-4)GlcNAc(b1-3)GalNAc
How it was run: as §1

[24] = molecular target: Gal(a1-3)Gal(b1-4)GlcNAc(b1-6)GalNAc
How it was run: as §1

[25] = molecular target: Gal(a1-3)Gal(b1-4)[Fuc(a1-3)]GlcNAc
How it was run: as §1

[26] = molecular target: Gal(a1-3)Gal(b1-4)[Fuc(a1-3)]GlcNAc(b1-2)Man(a1-3)[Gal(a1-3)Gal(b1-4)[Fuc(a1-3)]GlcNAc(b1-2)Man(a1-6)]Man(b1-4)GlcNAc(b1-4)GlcNAc
How it was run: as §1

[27] = molecular target: Gal(a1-3)GalNAc
How it was run: as §1

[28] = molecular target: Gal(a1-3)[Gal(a1-4)]Gal(b1-4)GlcNAc
How it was run: as §1

[29] = molecular target: Gal(a1-4)Gal(b1-3)GlcNAc(b1-2)Man(a1-3)[Gal(a1-4)Gal(b1-3)GlcNAc(b1-2)Man(a1-6)]Man(b1-4)GlcNAc(b1-4)GlcNAc
How it was run: as §1

[30] = molecular target: Gal(a1-4)Gal(b1-4)Glc
How it was run: as §1

[31] = molecular target: Gal(a1-4)Gal(b1-4)GlcNAc
How it was run: as §1

[32] = molecular target: Gal(a1-4)Gal(b1-4)GlcNAc(b1-2)Man(a1-3)[Gal(a1-4)Gal(b1-4)GlcNAc(b1-2)Man(a1-6)]Man(b1-4)GlcNAc(b1-4)GlcNAc
How it was run: as §1

[33] = molecular target: Gal(a1-4)Gal(b1-4)GlcNAc(b1-3)Gal(b1-4)Glc
How it was run: as §1

[34] = molecular target: Gal(a1-4)GlcNAc
How it was run: as §1

[35] = molecular target: Gal(a1-6)Glc
How it was run: as §1

[36] = molecular target: Gal(b1-2)Gal
How it was run: as §1

[37] = molecular target: Gal(b1-3)Gal
How it was run: as §1

[38] = molecular target: Gal(b1-3)Gal(b1-4)GlcNAc
How it was run: as §1

[39] = molecular target: Gal(b1-3)Gal(b1-4)GlcNAc(b1-2)Man(a1-3)[Gal(b1-3)Gal(b1-4)GlcNAc(b1-2)Man(a1-6)]Man(b1-4)GlcNAc(b1-4)GlcNAc
How it was run: as §1

[40] = molecular target: Gal(b1-3)GalNAc
How it was run: as §1

[41] = molecular target: Gal(b1-3)GalNAc(a1-3)[Fuc(a1-2)]Gal(b1-4)Glc
How it was run: as §1

[42] = molecular target: Gal(b1-3)GalNAc(a1-3)[Fuc(a1-2)]Gal(b1-4)GlcNAc
How it was run: as §1

[43] = molecular target: Gal(b1-3)GalNAc(b1-3)Gal(a1-4)Gal(b1-4)Glc
How it was run: as §1

[44] = molecular target: Gal(b1-3)GalNAc(b1-4)Gal(b1-4)Glc
How it was run: as §1

[45] = molecular target: Gal(b1-3)GalNAc(b1-4)[Neu5Ac(a2-3)]Gal(b1-4)Glc
How it was run: as §1

B1: SpnanA (Streptococcus pneumoniae), P62575 (protein)
chain: MVIEKEDVETNASNGQRVDLSSELDKLKKLENATVHMEFKPDAKAPAFYNLFSVSSATKKDEYFTMAVYNNTATLEGRGSDGKQFYNNYNDAPLKVKPGQWNSVTFTVEKPTAELPKGRVRLYVNGVLSRTSLRSGNFIKDMPDVTHVQIGATKRANNTVWGSNLQIRNLTVYNRALTPEEVQKRS
[1]
  glycan array binding signal (z-score): -0.191
[2]
  glycan array binding signal (z-score): -0.223
[3]
  glycan array binding signal (z-score): -0.196
[4]
  glycan array binding signal (z-score): -0.29
[5]
  glycan array binding signal (z-score): 0.254
[6]
  glycan array binding signal (z-score): -0.155
[7]
  glycan array binding signal (z-score): -0.187
[8]
  glycan array binding signal (z-score): -0.244
[9]
  glycan array binding signal (z-score): -0.238
[10]
  glycan array binding signal (z-score): -0.281
[11]
  glycan array binding signal (z-score): -0.252
[12]
  glycan array binding signal (z-score): -0.275
[13]
  glycan array binding signal (z-score): -0.24
[14]
  glycan array binding signal (z-score): -0.212
[15]
  glycan array binding signal (z-score): -0.132
[16]
  glycan array binding signal (z-score): -0.287
[17]
  glycan array binding signal (z-score): 0.122
[18]
  glycan array binding signal (z-score): -0.3
[19]
  glycan array binding signal (z-score): -0.297
[20]
  glycan array binding signal (z-score): -0.133
[21]
  glycan array binding signal (z-score): -0.296
[22]
  glycan array binding signal (z-score): -0.256
[23]
  glycan array binding signal (z-score): -0.187
[24]
  glycan array binding signal (z-score): -0.31
[25]
  glycan array binding signal (z-score): -0.262
[26]
  glycan array binding signal (z-score): -0.014
[27]
  glycan array binding signal (z-score): -0.252
[28]
  glycan array binding signal (z-score): -0.202
[29]
  glycan array binding signal (z-score): -0.298
[30]
  glycan array binding signal (z-score): -0.238
[31]
  glycan array binding signal (z-score): -0.273
[32]
  glycan array binding signal (z-score): -0.242
[33]
  glycan array binding signal (z-score): -0.236
[34]
  glycan array binding signal (z-score): -0.169
[35]
  glycan array binding signal (z-score): -0.175
[36]
  glycan array binding signal (z-score): -0.252
[37]
  glycan array binding signal (z-score): -0.211
[38]
  glycan array binding signal (z-score): -0.263
[39]
  glycan array binding signal (z-score): -0.261
[40]
  glycan array binding signal (z-score): -0.254
[41]
  glycan array binding signal (z-score): -0.2
[42]
  glycan array binding signal (z-score): -0.201
[43]
  glycan array binding signal (z-score): -0.222
[44]
  glycan array binding signal (z-score): -0.251
[45]
  glycan array binding signal (z-score): -0.232
